These results are taken from the supplement of paper PMC10126150.

For the data set, the system named is ATP. Nature of the data set: switch fluorescence ratio, 500 uM ATP over buffer (Cy3 cluster intensity, sum of 5 cycles each) (fold (ratio)); higher = stronger signal-on switching upon ATP binding; sequences stand for … in TCGTCGGCAGCGTCAGATGTGTATAAGAGACAGTTTTTTTTTTTTTTTTTTTTTTTTT…TC. The note with it: aptamer strand: ATP DNA aptamer (quencher-CACCTGGGGGAGTATTGCGGAGGAAGG + anchor), 100 nM annealed; ATP concentration: 500 uM; one replicate. Put shortly:
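Clusters with intensities outside 100-1000 RFU were excluded. The remaining Cy3-labelled switching-strand clusters on a modified Illumina MiSeq flow-cell had been annealed to 100 nM quencher-labelled ATP aptamer and imaged in selection buffer, then after 15 min with 500 uM ATP at 22 °C, for five cycles separated by NaOH stripping and re-annealing. The fluorescence ratio, averaged per switch-domain sequence, is each cluster's summed target-cycle Cy3 intensity over its summed buffer-cycle Cy3 intensity.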

Values marked as one replicate rest on one cluster of the flow cell; about a third of the high ones do not repeat.
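Also: ATP exposure 15 min at 22 °C before imaging.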

As to CTTCCTGTTT, the switch fluorescence ratio stood at 1.01.

Consider TTTCTAACGG, for which the switch fluorescence ratio is 1.03.

For ACCCCTTAGC, the switch fluorescence ratio was 1.14.

ATCCTTGGGC: the switch fluorescence ratio turned out to be 1.02.

As for AAGCAAAATG, the switch fluorescence ratio amounted to 1.1.

Turning to AACCCTGGTT, the switch fluorescence ratio was found to be 1.06.

Take TCCCAGTCTC: the switch fluorescence ratio turned out to be 1.05.

TATTTTTAAT: the switch fluorescence ratio amounted to 1.

Turning to GCAGATCTTA, the switch fluorescence ratio came out at 0.935.

For the sequence AGCGTCTAGT, the switch fluorescence ratio was determined as 0.969.

As to CGTGTGTCTA, the switch fluorescence ratio was found to be 0.986.

On to GGAACAATGC, for which the switch fluorescence ratio was 2.39.

Regarding AGTCTTATGT, the switch fluorescence ratio is 1.01.

TTTAGACTAC: the switch fluorescence ratio was 0.979.

For the sequence TAAGCGCCGT, the switch fluorescence ratio was 1.08.

With AGAGTAAAAT, the switch fluorescence ratio worked out at 0.978.

On to CAGATCAGAA, for which the switch fluorescence ratio is 0.999.

In the case of TACTTGGAA, the switch fluorescence ratio was 0.968.

For CTGACACTGT, the switch fluorescence ratio is 1.02.

Turning to CGGAACTTTG, the switch fluorescence ratio stood at 1.03.

As for TATGGCTGCT, the switch fluorescence ratio is 0.959.

Regarding GACTTCCTGA, the switch fluorescence ratio came out at 1.05.

AACAAAATTA: the switch fluorescence ratio was found to be 0.999.

TCCGAATGCT: the switch fluorescence ratio is 2.38.

Take CCTAAGTAAT: the switch fluorescence ratio amounted to 2.28.

For the sequence TGGGCAGCTC, the switch fluorescence ratio came out at 1.01.

As for GTTCGACCGA, the switch fluorescence ratio stood at 1.03.

For CTGGTGATAG, the switch fluorescence ratio worked out at 1.01.

TCCTAAATTT: the switch fluorescence ratio worked out at 0.992.

Take TGGAGGTGC: the switch fluorescence ratio stood at 1.05.

On to TGGATTAGCA, for which the switch fluorescence ratio was found to be 1.06.

Consider AAGGCCGAG, for which the switch fluorescence ratio is 0.993.

Turning to TACTGGACGC, the switch fluorescence ratio turned out to be 1.32.

In the case of TCGCCAAGTT, the switch fluorescence ratio came to 1.02.

Turning to GGTGTGATTA, the switch fluorescence ratio was found to be 0.972.

CAGCTTCTAA: the switch fluorescence ratio is 0.98.

ATGGAAGCCC: the switch fluorescence ratio was determined as 1.

As to AAACGGGCCA, the switch fluorescence ratio was 0.986.

On to AAGGCAGGAG, for which the switch fluorescence ratio was determined as 1.03.

On to CCCTTCAAAC, for which the switch fluorescence ratio was 1.28.

For AAGACTGCCG, the switch fluorescence ratio worked out at 1.02.

Take GCGGCTTTTG: the switch fluorescence ratio is 0.957.

Take AGGTGACGGA: the switch fluorescence ratio came to 0.977.

CGGTGTTATT: the switch fluorescence ratio amounted to 1.02.

Regarding GTCTGCAGCT, the switch fluorescence ratio came to 0.99.

As for CTCTCGGGGG, the switch fluorescence ratio is 0.967.

For the sequence ACTTCTTCCG, the switch fluorescence ratio amounted to 4.

On to ACGCACTGTG, for which the switch fluorescence ratio came out at 1.24.

Take GGCAGGCATG: the switch fluorescence ratio turned out to be 1.01.

For the sequence CTAGAGGCGG, the switch fluorescence ratio turned out to be 0.976.

As to GCCTGGAGGT, the switch fluorescence ratio came to 1.02.

Regarding ACTGAGAGAT, the switch fluorescence ratio came out at 1.01.

AGTGTCTAGA: the switch fluorescence ratio was determined as 1.

On to AATGGATGTC, for which the switch fluorescence ratio came out at 0.988.

As for TGGGGTGTTA, the switch fluorescence ratio was 0.989.

Turning to AACGTATTCA, the switch fluorescence ratio was found to be 1.1.

As for ATACCCTGC, the switch fluorescence ratio was determined as 0.992.

On to GGTTGTG, for which the switch fluorescence ratio came to 1.03.

For the sequence TACCGGGTTG, the switch fluorescence ratio amounted to 1.01.

With ATAGGCACTA, the switch fluorescence ratio came out at 1.

With AGTAATAGCA, the switch fluorescence ratio was found to be 0.99.

With CAAGATTTTG, the switch fluorescence ratio came to 0.977.

CAATTGAAGG: the switch fluorescence ratio was determined as 1.03.

Take TTGTGAAGGA: the switch fluorescence ratio stood at 0.999.

AAACTGTTCG: the switch fluorescence ratio stood at 1.06.

For the sequence GCTGAATTTT, the switch fluorescence ratio was 0.973.

Regarding GCTAGACCAG, the switch fluorescence ratio was found to be 1.02.

In the case of CTATCCTTTT, the switch fluorescence ratio amounted to 1.03.

As to GCGTATTGGG, the switch fluorescence ratio amounted to 0.958.

In the case of GCTGGTATGG, the switch fluorescence ratio is 0.986.

Take TCAAGGGA: the switch fluorescence ratio was determined as 0.968.

GATGCGTCGT: the switch fluorescence ratio amounted to 0.998.

Turning to AGGTGTCGCC, the switch fluorescence ratio is 1.01.

As to GCAACGCCTA, the switch fluorescence ratio turned out to be 0.972.

For TCCCCCCTAG, the switch fluorescence ratio stood at 1.43.

With TTGACACGGT, the switch fluorescence ratio turned out to be 1.01.

On to TAAAAGTGGA, for which the switch fluorescence ratio turned out to be 1.09.

For ACTAAGCAAA, the switch fluorescence ratio is 1.41.

Take TAGGTTGTG: the switch fluorescence ratio stood at 1.04.

As for GGTTTGTCAA, the switch fluorescence ratio was 1.01.

With GGTGGAGTCA, the switch fluorescence ratio was found to be 0.972.

Turning to AGACTCCGGG, the switch fluorescence ratio worked out at 0.986.

Regarding CCCGTTTCCA, the switch fluorescence ratio worked out at 0.947.

With CCGGGCTTAA, the switch fluorescence ratio worked out at 1.61.

GGGACCTTAC: the switch fluorescence ratio turned out to be 2.48.

Take TCTTAAAAGT: the switch fluorescence ratio is 0.999.

Take CCTGTTCCAG: the switch fluorescence ratio worked out at 0.991.

Turning to TGAGATCTAA, the switch fluorescence ratio was 1.

On to AAAGAAGGAC, for which the switch fluorescence ratio stood at 2.81.

For AAGCACTTGT, the switch fluorescence ratio was found to be 1.04.

For the sequence TCTATATTT, the switch fluorescence ratio was determined as 1.

With GCAATTAGAC, the switch fluorescence ratio is 1.72.

For TGATAACTTG, the switch fluorescence ratio worked out at 0.992.

In the case of CCGGCGACGT, the switch fluorescence ratio was 0.952.

In the case of TTTCTGACTA, the switch fluorescence ratio is 1.06.

Consider TCCATTCTAA, for which the switch fluorescence ratio was 1.01.

Consider AGCCTGGATA, for which the switch fluorescence ratio worked out at 1.01.

Consider GGGATCACGG, for which the switch fluorescence ratio is 1.01.

With TCGGACGAGA, the switch fluorescence ratio was 0.995.

Consider GCTATGTGCT, for which the switch fluorescence ratio worked out at 0.993.

For the sequence AGTGCATGAG, the switch fluorescence ratio was 1.05.

Turning to GGGTCCGAAG, the switch fluorescence ratio came out at 0.99.

On to ATAAGTTCTA, for which the switch fluorescence ratio is 1.04.

GAAGGCTGGT: the switch fluorescence ratio stood at 1.03.

With CTGGGGCTTG, the switch fluorescence ratio came to 0.985.

Regarding CAGAGTCCGT, the switch fluorescence ratio was 1.03.

Take TACCAAGACT: the switch fluorescence ratio was determined as 1.13.

For AGAGCTGGTA, the switch fluorescence ratio turned out to be 1.

In the case of ATTTTCCCCC, the switch fluorescence ratio is 1.02.

On to CGCCTAATCT, for which the switch fluorescence ratio was determined as 1.01.

Take TGGATGATA: the switch fluorescence ratio was determined as 1.03.

Turning to CTGTTTGTGT, the switch fluorescence ratio came to 1.

Take TGTATATGTA: the switch fluorescence ratio is 1.01.

GTCCGCCAGA: the switch fluorescence ratio was found to be 1.29.

As to GAAGACTGAG, the switch fluorescence ratio amounted to 0.979.

Take TATTCAAGGG: the switch fluorescence ratio is 1.03.

With AAAGCAGCAC, the switch fluorescence ratio is 1.61.

With GCGTCTGTCT, the switch fluorescence ratio worked out at 1.01.

Consider GGATGAGATG, for which the switch fluorescence ratio was 1.01.

CAAATTGCGA: the switch fluorescence ratio came out at 0.988.
